# From the supplement of paper PMC3334620
# Whole data set: some 33,000 sequences, median “E-score (-0.5 to 0.5)” near -0.016, cut for the highest 2% near 0.31. Some of the results follow.
# Biological target: Cst6 (UniProt P40535)
# Assay: PBM E-score (8-mer binding enrichment) (E-score (-0.5 to 0.5)); higher = stronger / more preferred TF binding; most listed sequences are background and not binding sites
# Details: protein concentration: 200 nM; construct: GST-DNA-binding domain
# Procedure, shortened: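 Yeast transcription factors, full-length or as DNA-binding domains, were expressed with a GST tag using PURExpress in vitro transcription/translation. At about 100-200 nM they were applied to universal all-10-mer Agilent arrays, double-stranded by primer extension on fresh or once-stripped slides. Fluorescent anti-GST detected bound protein, and masliner normalised the scans. E-scores for ungapped eight-base words, pooled with reverse complements, came from the Universal PBM Analysis Suite.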
row,Sequence,PBM E-score
1,ACGAGGAA,-0.0604
2,ATCACCTC,0.235
3,GTAGGGGA,-0.345
4,ATGCCAAT,0.0384
5,AGCGTCCC,-0.149
6,GAATAAAC,0.17
7,CATCTTAG,0.0998
8,GTTTACCA,0.0654
9,ATCGATAG,0.0406
10,ACTCCTGC,-0.0647
11,AAGCAGAG,0.0385
12,ATCTCGGG,-0.048
13,GCAGACCA,-0.2
14,ACGCGACA,0.124
15,GCACTTTA,0.0376
16,AAGGCCTT,-0.24
17,CGACTACC,-0.363
18,ATGCGACC,0.0984
19,GCATCCAA,-0.112
20,CTTGTTAC,0.0412
21,ATGGTTAA,0.0285
22,CATTCGGG,-0.0944
23,AGCAAGTG,-0.161
24,ACTAGCTC,-0.0558

row,Sequence,PBM E-score
1,CCGTCTCA,0.0207
2,GCGCGTCA,0.381
3,AATTTATA,0.263
4,CATGAAGG,0.0654
5,ATTGGAGG,-0.09
6,CCGTCGCA,-0.0328
7,CAATACGG,0.011
8,CCCCCTCC,-0.268
9,GTGAGGCA,0.053
10,CTAAGGAA,0.0254
11,ACACATGG,-0.0272
12,AAACTCGA,-0.0663
13,CTGCTCGA,-0.185
14,ACCATATG,-0.0614
15,TAGCCCCA,-0.172
16,CAGAAGAC,-0.0991
17,CGCGTGCC,0.00965
18,AGGTCCAG,-0.0532
19,CTTTGCTA,0.0728
20,GCGTTTAC,-0.00768
21,CGCCGTAA,0.189
22,AAGTCCCT,-0.325
23,TCCCCTCA,-0.0437
24,GGAGAAGA,-0.11

row,Sequence,PBM E-score
1,CATTACTC,0.271
2,AGGAGCAG,-0.292
3,GTAATGAA,0.268
4,AAACCATT,0.105
5,GCTTAAAC,-0.0762
6,CCGCATAG,0.0013
7,CTCGCCAA,-0.153
8,ACCATGTA,0.066
9,ATTTGGTG,0.107
10,ATCACCGG,0.0668
11,ATTCCGTA,0.105
12,CCTGAGTC,-0.211
13,GAGAACGC,-0.123
14,ATGTGCCC,0.0394
15,TAAAGGAA,-0.0105
16,CGTAGACC,-0.205
17,CGCGTACA,-0.0415
18,AGTGCGTC,0.104
19,GACCATAA,-0.0622
20,ACAGTTAC,0.13
21,AACCACGC,-0.0201
22,CTATGGTA,-0.0179
23,ACAATATC,0.218
24,CGGTCGGA,-0.218

row,Sequence,PBM E-score
1,GCTCACGA,-0.018
2,GATTGTCC,-0.11
3,CCGCCGGA,-0.149
4,AACCAAGC,-0.127
5,ATGCTGTC,0.214
6,ATGCGTGA,0.109
7,AGAGCTGC,-0.225
8,AGTATAGC,-0.0254
9,GATAATCC,-0.206
10,AAGGTAGC,-0.198
11,CCTGCACG,0.0307
12,ATGCTACA,-0.108
13,CTATTGAC,0.201
14,CGTAAGAA,0.268
15,ATAAGCCA,0.0242
16,ACAGGTGG,-0.143
17,CGCCCACA,0.122
18,AGCGTTCG,-0.112
19,ATAGGGCG,0.0365
20,CAAGAAGC,0.151
21,AGGCCTCA,-0.181
22,AGTAAACA,0.117
